Assay results published in the supplement of paper PMC6089552.
Hit rate of the full screen: of about 3,200 compounds, about 300 (9.4%) showed activity. Only a part is listed here, and it is no random draw.

System: A673/TR/shEF
Assay: cell viability (LOESS-normalised, relative to median of negative controls) (log2 ratio); higher = more viable cells (less compound effect), active = hit call of the paper (over 3 MAD below the median)
Conditions: treatment time: 72 h
Summary of the method: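 Doxycycline, present or absent from 24 h before compounds, was used to induce EWS-FLI1 shRNA knockdown in A673/TR/shEF Ewing sarcoma cells at 1,500 per well in 384-well plates. Cells then received library compounds at two or more concentrations, or DMSO controls, for three days. Viability was measured by CellTiter-Glo luminescence on an Envision reader, and per-plate LOESS correction, division by the negative-control median and log2 transformation followed.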

[1] = 0.25 µM, library screen: screen1, EWS-FLI1 expression: high (no doxycycline)
[2] = 0.25 µM, library screen: screen1, EWS-FLI1 expression: low (doxycycline-induced shRNA knockdown)
[3] = 2.5 µM, library screen: screen1, EWS-FLI1 expression: high (no doxycycline)
[4] = 2.5 µM, library screen: screen1, EWS-FLI1 expression: low (doxycycline-induced shRNA knockdown)
[5] = 0.25 µM, library screen: screen2, EWS-FLI1 expression: high (no doxycycline)
[6] = 0.25 µM, library screen: screen2, EWS-FLI1 expression: low (doxycycline-induced shRNA knockdown)
[7] = 2.5 µM, library screen: screen2, EWS-FLI1 expression: high (no doxycycline)
[8] = 2.5 µM, library screen: screen2, EWS-FLI1 expression: low (doxycycline-induced shRNA knockdown)
[9] = 2.8 µM, library screen: screen3, EWS-FLI1 expression: high (no doxycycline)
[10] = 2.8 µM, library screen: screen3, EWS-FLI1 expression: low (doxycycline-induced shRNA knockdown)
[11] = 8.3 µM, library screen: screen3, EWS-FLI1 expression: high (no doxycycline)
[12] = 8.3 µM, library screen: screen3, EWS-FLI1 expression: low (doxycycline-induced shRNA knockdown)
[13] = 25 µM, library screen: screen3, EWS-FLI1 expression: high (no doxycycline)
[14] = 25 µM, library screen: screen3, EWS-FLI1 expression: low (doxycycline-induced shRNA knockdown)
[15] = 0.103 µM, library screen: screen3, EWS-FLI1 expression: high (no doxycycline)
[16] = 0.103 µM, library screen: screen3, EWS-FLI1 expression: low (doxycycline-induced shRNA knockdown)
[17] = 0.308 µM, library screen: screen3, EWS-FLI1 expression: high (no doxycycline)
[18] = 0.308 µM, library screen: screen3, EWS-FLI1 expression: low (doxycycline-induced shRNA knockdown)
[19] = 0.926 µM, library screen: screen3, EWS-FLI1 expression: high (no doxycycline)
[20] = 0.926 µM, library screen: screen3, EWS-FLI1 expression: low (doxycycline-induced shRNA knockdown)

Measured: cell viability (log2)

COc1cc(OC)c2c(=O)cc(-c3ccccc3)oc2c1
inactive: [1] 0.103 | [2] 0.00884 | [3] 0.158 | [4] 0.121

COC(=O)C[C@H]1C(C)(C)[C@@H](O)[C@@H]2CC3=C4C=C(OC)O[C@@H](c5ccoc5)[C@]4(C)CCC3[C@@]1(C)C2=O (stereo not given in full)
inactive: [1] 0.0415 | [2] 0.0871 | [3] 0.0987 | [4] 0.00724

CCCCCCCCCCCCCCCC(=O)NCC(COP(=O)([O-])OCC[N+](C)(C)C)OCC (stereo not given)
inactive: [5] 0.198 | [6] 0.0364 | [7] 0.0761 | [8] -0.0192

CCCc1ncc(C[n+]2ccccc2C)c(N)n1
inactive: 0.025 µM, library screen: screen2, EWS-FLI1 expression: high (no doxycycline) 0.138 | 0.025 µM, library screen: screen2, EWS-FLI1 expression: low (doxycycline-induced shRNA knockdown) 0.0892 | [1] 0.134 | [2] 0.0903 | [5] 0.0943 | [6] 0.0537 | [3] 0.166 | [4] 0.229 | [7] 0.141 | [8] 0.0526 | 25 µM, library screen: screen2, EWS-FLI1 expression: high (no doxycycline) 0.107 | 25 µM, library screen: screen2, EWS-FLI1 expression: low (doxycycline-induced shRNA knockdown) 0.0399

Cc1cc(Nc2ccc(O)cc2)n2c(nc3ccccc32)c1C#N
inactive: [1] 0.079 | [2] 0.0759 | [3] 0.0987 | [4] 0.0687

CCN(CC)Cc1ccc(Nc2ccnc3cc(Cl)ccc23)cc1O
inactive: [1] 0.0722 | [2] 0.126 | [3] 0.197 | [4] 0.302

N#C/C(=C\c1ccc(O)c(O)c1)C(=O)Nc1ccccc1
active: [3] -0.16 | 25 µM, library screen: screen1, EWS-FLI1 expression: high (no doxycycline) -0.692
inactive: 0.025 µM, library screen: screen1, EWS-FLI1 expression: high (no doxycycline) 0.188 | 0.025 µM, library screen: screen1, EWS-FLI1 expression: low (doxycycline-induced shRNA knockdown) -0.0571 | [1] 0.155 | [2] 0.0428 | [5] 0.0861 | [6] 0.0194 | [4] 0.0541 | [7] 0.105 | [8] 0.00853 | 25 µM, library screen: screen1, EWS-FLI1 expression: low (doxycycline-induced shRNA knockdown) 0.0298

Nc1ccc(S(=O)(=O)NC(=O)c2ccccc2)cc1
inactive: [1] 0.0184 | [2] 0.0215 | [3] 0.0764 | [4] 0.0963

CCCC[C@@]1(C2CCCC2)Cc2cc(OCC(=O)O)c(Cl)c(Cl)c2C1=O
inactive: [5] -0.00877 | [6] 0.109 | [7] 0.0409 | [8] 0.0461

OC[C@H]1O[C@@H](O[C@@H]2[C@@H](CO)O[C@](O)(CO)[C@H]2O)[C@H](O)[C@@H](O)[C@H]1O
inactive: [1] 0.0803 | [2] -0.00929 | [3] 0.122 | [4] -0.0194

C=C(CC)C(=O)c1ccc(OCC(=O)O)c(Cl)c1Cl
inactive: [1] 0.131 | [2] 0.0533 | [3] 0.173 | [4] 0.177

CCNC(=O)[C@H]1O[C@@H](n2cnc3c(N)nc(NCCc4ccc(CCC(=O)O)cc4)nc32)[C@H](O)[C@@H]1O
inactive: [5] 0.0503 | [6] 0.0859 | [7] 0.00577 | [8] 0.0921

O=c1cc(-c2ccc(O)cc2)oc2cc(O[C@@H]3O[C@H](CO)[C@@H](O)[C@H](O)[C@H]3O[C@@H]3OC[C@](O)(CO)[C@H]3O)cc(O)c12
inactive: [1] 0.0435 | [2] 0.0313 | [3] 0.0845 | [4] 0.031

C[C@](N)(Cc1ccc(O)cc1)C(=O)O
inactive: [5] 0.132 | [6] 0.0842 | [7] 0.134 | [8] 0.0355

O=C1CC(c2ccccc2)Oc2ccccc21 (stereo not given)
inactive: [1] -0.00433 | [2] 0.123 | [3] 0.163 | [4] 0.184

CNc1ncnc2c1ncn2[C@@H]1O[C@H](CO)[C@@H](O)[C@H]1O
inactive: [5] 0.104 | [6] 0.0674 | [7] 0.0505 | [8] 0.098

N[C@@H](CC(=O)O)C(=O)O
active: [5] -0.146

c1ccc2c(c1)CCCC2C1=NCCN1 (stereo not given)
inactive: [1] 0.0777 | [2] 0.0443 | [5] 0.0558 | [6] 0.0569 | [3] 0.13 | [4] 0.185 | [7] 0.113 | [8] -0.0209

CCC(C)[C@H]1O[C@]2(CC[C@@H]1C)CC1C[C@@H](C/C=C(\C)[C@@H](O[C@H]3C[C@H](OC)[C@@H](OC4C[C@H](OC)[C@@H](O)[C@H](C)O4)[C@H](C)O3)[C@@H](C)/C=C/C=C3\CO[C@@H]4[C@H](O)C(C)=C[C@@H](C(=O)O1)[C@]34O)O2.CO[C@H]1CC(O[C@H]2[C@H](C)O[C@@H](O[C@@H]3/C(C)=C/C[C@@H]4CC(C[C@]5(CC[C@H](C)[C@@H](C(C)C)O5)O4)OC(=O)[C@@H]4C=C(C)[C@@H](O)[C@H]5OC/C(=C\C=C\[C@@H]3C)[C@]54O)C[C@@H]2OC)O[C@@H](C)[C@@H]1O (stereo not given in full)
active: [7] -0.104 | [9] -0.279 | [10] -0.285 | [11] -0.239 | [12] -0.115 | [13] -3.03 | [14] -1.99

C=C(C)[C@@H]1CC[C@]2(C(=O)O)CC[C@]3(C)[C@H](CC[C@@H]4[C@@]5(C)CC[C@H](O)C(C)(C)[C@@H]5CC[C@]43C)[C@@H]12
inactive: [1] 0.0559 | [2] 0.0935 | [3] 0.0993 | [4] 0.08

Oc1ccc2c(c1)OC[C@]1(O)Cc3cc(O)c(O)cc3[C@H]21
inactive: [1] 0.113 | [2] 0.129 | [3] 0.0951 | [4] 0.187

C1N2CN3CN1CN(C2)C3
inactive: [1] 0.0393 | [2] -0.017 | [3] 0.125 | [4] 0.0127

O=C(O)C1=C[C@@H](O)[C@@H](O)[C@H](O)C1
inactive: [1] 0.0508 | [2] 0.101 | [3] 0.101 | [4] 0.134

NC(=O)c1ccccc1O
inactive: [1] 0.141 | [2] 0.134 | [3] 0.156 | [4] 0.19

COc1ccc(OC)c(CN2CCN(Cc3cccnc3)CC2)c1
inactive: [1] 0.114 | [2] 0.038 | [3] 0.0976 | [4] -0.0472

CCOC(=O)N1CCC(=C2c3ccc(Cl)cc3CCc3cccnc32)CC1
inactive: [15] 0.0636 | [16] 0.0767 | [1] 0.0808 | [2] 0.1 | [5] 0.133 | [6] 0.129 | [17] 0.0192 | [18] 0.0882 | [19] 0.0803 | [20] 0.0805 | [3] 0.114 | [4] 0.057 | [7] 0.112 | [8] 0.0012 | [9] 0.112 | [10] 0.0258 | [11] 0.0723 | [12] 0.0616 | [13] 0.0441 | [14] 0.0227

Nc1nc(F)nc2c1ncn2[C@@H]1O[C@H](COP(=O)(O)O)[C@@H](O)[C@@H]1O
inactive: [15] -0.0279 | [16] -0.000356 | [17] 0.0256 | [18] 0.153 | [19] 0.075 | [20] 0.0953 | [9] -0.0277 | [10] 0.0929 | [11] 0.103 | [12] 0.0436 | [13] 0.0709 | [14] 0.0764

COc1ccc(-c2coc3cc(O)ccc3c2=O)cc1
active: [1] -0.6
inactive: [2] 0.0672 | [3] 0.234 | [4] 0.103

N.N.N.N.N.O.[Ru+2]
inactive: [5] 0.216 | [6] 0.0909 | [7] 0.256 | [8] 0.0639

C[C@@H](Oc1ccccc1)C(=O)N[C@@H]1C(=O)N2[C@@H]1SC(C)(C)[C@@H]2C(=O)O
inactive: [1] 0.0816 | [2] 0.0301 | [3] 0.188 | [4] 0.189

C=C1C2CC[C@@]3(C)[C@H](c4ccoc4)OC(=O)C[C@]13O[C@H]1C[C@H](OC(C)=O)C(C)(C)[C@H](CC(=O)OC)[C@@]21C
inactive: [1] 0.122 | [2] 0.0225 | [3] 0.146 | [4] 0.192

Oc1c(Br)cc(Br)c2cccnc12
inactive: [1] 0.0596 | [2] 0.131 | [3] 0.0179 | [4] -0.646

CCC(=O)O[C@H]1CC[C@H]2[C@@H]3CCc4cc(O)ccc4[C@H]3CC[C@]12C
inactive: [1] 0.0933 | [2] 0.137 | [3] 0.162 | [4] 0.0928

CC(C)C[C@H](NC(=O)[C@H](Cc1ccccc1)NC(=O)c1cnccn1)B(O)O
active: [15] -0.242 | [17] -2.56 | [18] -0.914 | [19] -3.95 | [20] -1.75 | [9] -4.24 | [10] -4.06 | [11] -4.26 | [12] -3.84 | [13] -4.26 | [14] -4.16

O=C(OCCN1CCOCC1)C1(c2ccccc2)CCCCC1
inactive: [5] 0.05 | [6] 0.0784 | [7] 0.12 | [8] 0.156

COc1ccc(CC(C)NCC(O)c2ccc(O)c(NC=O)c2)cc1 (stereo not given)
inactive: [5] 0.238 | [6] 0.0619 | [7] 0.163 | [8] 0.0459

COC(=O)C(O)[C@H]1C(C)(C)[C@@H](OC(C)=O)[C@@H]2CC3=C4CC(=O)O[C@@H](c5ccoc5)[C@]4(C)CCC3[C@@]1(C)C2=O (stereo not given in full)
inactive: [1] 0.11 | [2] 0.119 | [3] 0.15 | [4] 0.0885

c1ccc([C@@H]2CCC[C@@H]2NC2=NCCCCCCCCCCC2)cc1
inactive: [5] 0.117 | [6] 0.0677 | [7] 0.18 | [8] 0.156

C[C@H](N[C@@H](CCc1ccccc1)C(=O)O)C(=O)N1CCC[C@H]1C(=O)O
inactive: [15] 0.0689 | [16] 0.0524 | [17] 0.0142 | [18] 0.0116 | [19] 0.0648 | [20] 0.0211 | [9] 0.0542 | [10] 0.0458 | [11] 0.0356 | [12] 0.065 | [13] 0.137 | [14] 0.0987
